Source: the antibiotic and cytotoxicity screens of Wong et al. (2023)
Some of the results follow.

System: S. aureus RN4220
Assay: growth inhibition call (relative growth <= 0.2)
Settings: 50 µM

Growth inhibition call, inactive:
CS(=O)(=O)NCc1ccsc1
C[C@@H]1CCCCO[C@@H](CN(C)C)[C@@H](C)CN([C@H](C)CO)C(=O)c2cc(NC(=O)Nc3cccc4ccccc34)ccc2O1
C[C@@H]1CCCCO[C@H](CN(C)C(=O)C2CCCCC2)[C@H](C)CN([C@H](C)CO)C(=O)c2cc(NC(=O)NC3CCCCC3)ccc2O1
CC(C)NC(=O)Nc1ccc2c(c1)CC(=O)N([C@H](C)CO)C[C@@H](C)[C@H](CN(C)C(=O)Nc1ccc3c(c1)OCO3)O2
Cc1noc(C)c1S(=O)(=O)N(C)C[C@H]1Oc2c(NC(=O)C3CCCCC3)cccc2C(=O)N([C@@H](C)CO)C[C@H]1C
Cc1cc(C(=O)Nc2cccc3c2O[C@H](CN(C)S(=O)(=O)c2cn(C)cn2)[C@@H](C)CN([C@@H](C)CO)C3=O)n(C)n1
C[C@@H]1CN([C@@H](C)CO)C(=O)c2cc(NS(=O)(=O)c3cn(C)cn3)ccc2O[C@H]1CN(C)Cc1ccc(C(=O)O)cc1
C[C@H]1CCCCO[C@H](CN(C)S(=O)(=O)c2ccc(F)cc2)[C@@H](C)CN([C@@H](C)CO)C(=O)c2cc(NC(=O)CCC(F)(F)F)ccc2O1
C[C@@H]1CCCCO[C@H](CN(C)CC2CCCCC2)[C@H](C)CN([C@H](C)CO)C(=O)c2cc(NC(=O)CCCN(C)C)ccc2O1
Cc1nccn1CC1CCc2c(c3ccccc3n2C)C1=O.Cl (stereo not given)
C[C@H](CO)N1C[C@H](C)[C@@H](CN(C)Cc2ccc(Oc3ccccc3)cc2)Oc2ccc(NC(=O)CCC(F)(F)F)cc2C1=O
C[C@@H]1CN([C@@H](C)CO)C(=O)c2cc(C#CCN(C)C)cnc2O[C@@H]1CN(C)Cc1ccc(C(=O)O)cc1
COc1ccc(NC(=O)N(C)C[C@H]2OCCCC[C@@H](C)Oc3ccc(NS(=O)(=O)c4cccs4)cc3C(=O)N([C@H](C)CO)C[C@@H]2C)cc1
CC(C)(O)C#Cc1ccc([C@@H]2[C@H]3CN(S(C)(=O)=O)CCCCN3[C@H]2CO)cc1
Cc1noc(C)c1S(=O)(=O)N(C)C[C@H]1Oc2ccc(NS(=O)(=O)c3cn(C)cn3)cc2CC(=O)N([C@H](C)CO)C[C@H]1C
C[C@H]1CN([C@@H](C)CO)C(=O)c2cccc(NC(=O)c3cnccn3)c2O[C@H]1CN(C)C(=O)Nc1ccccc1
O=c1[nH][nH]c(=S)n1C1CC1
CCCNC1CCc2nc(N)sc2C1.Cl.Cl (stereo not given)
C[C@H]1CN([C@@H](C)CO)C(=O)Cc2cc(NC(=O)Cn3cnnn3)ccc2O[C@H]1CN(C)C(=O)Nc1ccccc1
Cc1ccc(S(=O)(=O)Nc2ccc3c(c2)CC(=O)N([C@@H](C)CO)C[C@H](C)[C@@H](CN(C)C(=O)Nc2ccc(C(F)(F)F)cc2)O3)cc1
C[C@H]1CN([C@@H](C)CO)C(=O)Cc2cc(NC(=O)Cn3cnnn3)ccc2O[C@H]1CN(C)Cc1ccccc1
COc1ccc(NC(=O)Nc2ccc3c(c2)C(=O)N([C@@H](C)CO)C[C@@H](C)[C@H](CN(C)CC2CC2)OCCCC[C@@H](C)O3)cc1
Cc1ccc(S(=O)(=O)Nc2ccc3c(c2)C(=O)N([C@@H](C)CO)C[C@H](C)[C@@H](CN(C)C(=O)C2CCCCC2)OCCCC[C@H](C)O3)cc1
CCCN(C)C[C@@H]1OCCCC[C@@H](C)Oc2ccc(NS(C)(=O)=O)cc2C(=O)N([C@@H](C)CO)C[C@@H]1C
Cc1noc(C)c1S(=O)(=O)Nc1ccc2c(c1)CC(=O)N([C@H](C)CO)C[C@H](C)[C@H](CN(C)S(C)(=O)=O)O2
C=CCC[C@@H](Cc1ccc(F)cc1)C(=O)O[C@H](CNC(=O)[C@@H](CC=C)CC(=O)N(CCO)Cc1ccccc1)c1ccccc1
Cc1ccc(-c2cnc3c(c2)C(=O)N([C@H](C)CO)C[C@@H](C)[C@@H](CN(C)C(=O)Cc2ccncc2)O3)cc1
Cn1cnc(S(=O)(=O)N2C[C@@H](O)COC[C@H]3O[C@@H](CC(=O)NC4CCC4)CC[C@@H]32)c1
COc1ccc(S(=O)(=O)Nc2ccc3c(c2)C(=O)N([C@@H](C)CO)C[C@H](C)[C@@H](CN(C)Cc2ccc(Cl)c(Cl)c2)O3)cc1
C[C@H](CO)N1C[C@H](C)[C@@H](CN(C)CC2CCCCC2)Oc2ccc(NC(=O)CCCCCC(=O)Nc3ccccc3N)cc2C1=O
